The results in this text go back to PMC5007331, “YTHDF2 destabilizes m^6A-containing RNA through direct recruitment of the CCR4–NOT deadenylase complex” (Nature Communications, 2016).

The chains behind the UniProt entries cited, without tags or fusion partners. Where a name states a change or a piece, a line headed by the entry shows the natural chain unless it says otherwise. Residues count along the entry.
UniProt A5YKK6: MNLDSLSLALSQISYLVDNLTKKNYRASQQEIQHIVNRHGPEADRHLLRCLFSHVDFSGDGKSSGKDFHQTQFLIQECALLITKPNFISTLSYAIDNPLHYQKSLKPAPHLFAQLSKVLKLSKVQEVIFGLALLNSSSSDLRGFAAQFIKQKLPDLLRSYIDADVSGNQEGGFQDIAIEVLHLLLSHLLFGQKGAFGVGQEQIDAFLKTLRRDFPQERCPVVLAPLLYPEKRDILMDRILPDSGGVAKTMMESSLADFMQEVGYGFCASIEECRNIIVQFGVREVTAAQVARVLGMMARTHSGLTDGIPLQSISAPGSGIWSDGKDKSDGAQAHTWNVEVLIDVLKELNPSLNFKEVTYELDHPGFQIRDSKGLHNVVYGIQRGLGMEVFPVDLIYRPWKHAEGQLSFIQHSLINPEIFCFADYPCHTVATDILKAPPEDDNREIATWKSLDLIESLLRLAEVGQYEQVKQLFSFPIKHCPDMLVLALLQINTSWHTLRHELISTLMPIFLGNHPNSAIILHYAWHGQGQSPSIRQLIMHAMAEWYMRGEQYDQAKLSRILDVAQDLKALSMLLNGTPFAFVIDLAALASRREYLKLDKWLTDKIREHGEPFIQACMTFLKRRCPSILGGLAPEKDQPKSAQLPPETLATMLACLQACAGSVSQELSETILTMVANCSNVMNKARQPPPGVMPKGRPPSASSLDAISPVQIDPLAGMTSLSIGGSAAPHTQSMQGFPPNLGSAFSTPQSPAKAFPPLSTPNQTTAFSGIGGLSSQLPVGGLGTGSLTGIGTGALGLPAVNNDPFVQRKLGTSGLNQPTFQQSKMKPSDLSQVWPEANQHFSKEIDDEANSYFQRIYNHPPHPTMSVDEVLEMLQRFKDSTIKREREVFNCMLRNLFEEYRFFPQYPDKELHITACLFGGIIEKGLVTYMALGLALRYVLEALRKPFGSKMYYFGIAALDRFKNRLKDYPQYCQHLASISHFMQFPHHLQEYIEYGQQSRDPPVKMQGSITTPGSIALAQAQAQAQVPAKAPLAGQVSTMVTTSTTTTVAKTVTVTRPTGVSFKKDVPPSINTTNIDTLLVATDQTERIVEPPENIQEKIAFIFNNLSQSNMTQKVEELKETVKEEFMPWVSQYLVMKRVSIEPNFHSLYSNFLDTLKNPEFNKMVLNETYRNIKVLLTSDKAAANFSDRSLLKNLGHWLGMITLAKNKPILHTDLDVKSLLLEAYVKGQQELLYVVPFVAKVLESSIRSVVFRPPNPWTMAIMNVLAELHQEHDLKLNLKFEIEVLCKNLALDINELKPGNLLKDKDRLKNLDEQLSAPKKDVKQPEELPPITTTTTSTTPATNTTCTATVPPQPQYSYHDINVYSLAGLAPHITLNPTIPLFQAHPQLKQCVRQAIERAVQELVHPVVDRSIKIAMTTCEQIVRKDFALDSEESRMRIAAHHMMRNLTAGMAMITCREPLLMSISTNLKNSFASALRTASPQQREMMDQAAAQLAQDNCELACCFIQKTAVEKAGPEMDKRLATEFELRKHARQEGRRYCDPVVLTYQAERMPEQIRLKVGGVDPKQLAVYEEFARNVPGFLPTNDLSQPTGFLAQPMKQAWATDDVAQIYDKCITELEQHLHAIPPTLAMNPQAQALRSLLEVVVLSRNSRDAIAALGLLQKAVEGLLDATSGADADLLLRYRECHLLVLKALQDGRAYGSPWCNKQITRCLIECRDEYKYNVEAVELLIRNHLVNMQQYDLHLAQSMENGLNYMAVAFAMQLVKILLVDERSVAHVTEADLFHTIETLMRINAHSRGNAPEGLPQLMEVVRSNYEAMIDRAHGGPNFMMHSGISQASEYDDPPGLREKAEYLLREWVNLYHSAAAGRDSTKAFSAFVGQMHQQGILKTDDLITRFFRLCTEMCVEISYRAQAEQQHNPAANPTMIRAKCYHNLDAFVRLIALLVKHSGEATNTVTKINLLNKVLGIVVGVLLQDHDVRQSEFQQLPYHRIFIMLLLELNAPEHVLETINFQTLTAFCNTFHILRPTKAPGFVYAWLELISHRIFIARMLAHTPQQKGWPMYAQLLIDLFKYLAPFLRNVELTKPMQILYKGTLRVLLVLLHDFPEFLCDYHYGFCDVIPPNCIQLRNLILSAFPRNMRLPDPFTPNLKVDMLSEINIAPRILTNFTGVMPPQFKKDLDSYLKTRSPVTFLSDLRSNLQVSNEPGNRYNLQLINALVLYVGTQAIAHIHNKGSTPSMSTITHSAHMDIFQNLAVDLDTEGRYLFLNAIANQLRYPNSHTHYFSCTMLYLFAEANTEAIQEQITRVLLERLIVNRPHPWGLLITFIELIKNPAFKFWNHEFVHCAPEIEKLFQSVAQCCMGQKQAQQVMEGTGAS
CNOT1 SH domain-GST fusion protein (aa 1842-2376): residues 1842-2376 of A5YKK6
UniProt Q9UIV1: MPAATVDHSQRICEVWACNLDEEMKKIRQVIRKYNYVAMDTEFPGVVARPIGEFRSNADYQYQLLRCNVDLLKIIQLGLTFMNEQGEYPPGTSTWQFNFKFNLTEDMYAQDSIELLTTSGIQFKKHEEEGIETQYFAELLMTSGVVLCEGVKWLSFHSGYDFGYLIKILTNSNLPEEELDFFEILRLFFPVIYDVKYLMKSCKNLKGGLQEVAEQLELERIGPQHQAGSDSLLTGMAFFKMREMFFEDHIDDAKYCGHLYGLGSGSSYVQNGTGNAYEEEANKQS

Sequences and labels used below:
T1: FLAG-tagged YTHDF2 stably expressed in HeLa-tTA cells (human) (UniProt Q9Y5A9)
T1 sequence: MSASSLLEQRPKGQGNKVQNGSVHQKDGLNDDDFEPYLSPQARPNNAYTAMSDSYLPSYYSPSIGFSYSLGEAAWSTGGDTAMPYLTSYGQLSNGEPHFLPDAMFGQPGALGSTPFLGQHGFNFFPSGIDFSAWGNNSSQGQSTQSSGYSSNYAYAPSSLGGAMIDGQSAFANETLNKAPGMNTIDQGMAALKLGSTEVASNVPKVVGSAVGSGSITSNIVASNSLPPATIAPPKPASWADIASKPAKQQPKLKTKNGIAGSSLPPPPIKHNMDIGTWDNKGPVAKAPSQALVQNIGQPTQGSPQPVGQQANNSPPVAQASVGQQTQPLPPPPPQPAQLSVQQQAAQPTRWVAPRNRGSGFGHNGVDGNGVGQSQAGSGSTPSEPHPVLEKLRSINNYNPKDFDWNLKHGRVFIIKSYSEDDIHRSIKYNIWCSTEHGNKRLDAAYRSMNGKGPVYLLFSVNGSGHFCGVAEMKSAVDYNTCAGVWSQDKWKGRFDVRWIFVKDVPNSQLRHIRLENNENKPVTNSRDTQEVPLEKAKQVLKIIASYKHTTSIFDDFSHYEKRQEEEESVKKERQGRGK

T2: λN-FLAG-YTHDF2 (human) (UniProt Q9Y5A9)
T2 sequence: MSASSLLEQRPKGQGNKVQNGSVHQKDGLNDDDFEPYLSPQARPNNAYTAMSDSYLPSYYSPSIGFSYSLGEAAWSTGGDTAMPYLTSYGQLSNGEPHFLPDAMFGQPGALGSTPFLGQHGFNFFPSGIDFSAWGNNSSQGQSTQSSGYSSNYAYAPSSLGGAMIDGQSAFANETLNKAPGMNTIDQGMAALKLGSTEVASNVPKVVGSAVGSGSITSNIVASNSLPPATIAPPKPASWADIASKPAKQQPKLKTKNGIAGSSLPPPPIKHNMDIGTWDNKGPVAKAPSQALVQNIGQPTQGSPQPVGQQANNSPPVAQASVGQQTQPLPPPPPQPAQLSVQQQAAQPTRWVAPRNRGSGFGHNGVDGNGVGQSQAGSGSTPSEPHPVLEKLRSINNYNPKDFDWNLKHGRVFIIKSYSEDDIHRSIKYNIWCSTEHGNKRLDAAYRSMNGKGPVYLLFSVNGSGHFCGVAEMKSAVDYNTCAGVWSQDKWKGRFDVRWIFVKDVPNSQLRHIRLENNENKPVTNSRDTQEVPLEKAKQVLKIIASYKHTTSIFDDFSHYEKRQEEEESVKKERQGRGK

T3: λN-FLAG-YTHDF2 (human), Q9Y5A9
T3 chain: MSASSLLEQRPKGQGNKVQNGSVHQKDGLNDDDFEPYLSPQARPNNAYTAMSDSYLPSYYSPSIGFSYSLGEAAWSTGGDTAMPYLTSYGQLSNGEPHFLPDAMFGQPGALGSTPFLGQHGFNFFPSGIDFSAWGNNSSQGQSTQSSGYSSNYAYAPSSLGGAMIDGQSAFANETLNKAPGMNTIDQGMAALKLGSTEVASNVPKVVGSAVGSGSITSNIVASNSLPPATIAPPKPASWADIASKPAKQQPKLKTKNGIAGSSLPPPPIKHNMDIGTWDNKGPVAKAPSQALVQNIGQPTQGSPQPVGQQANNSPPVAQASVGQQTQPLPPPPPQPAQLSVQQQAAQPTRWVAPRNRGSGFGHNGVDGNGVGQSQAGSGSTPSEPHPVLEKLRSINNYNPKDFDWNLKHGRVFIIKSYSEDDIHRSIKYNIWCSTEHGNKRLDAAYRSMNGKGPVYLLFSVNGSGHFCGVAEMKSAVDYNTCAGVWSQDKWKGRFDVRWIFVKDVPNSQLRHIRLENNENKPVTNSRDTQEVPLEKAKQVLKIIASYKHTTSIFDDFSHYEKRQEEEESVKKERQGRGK

B1: V5-tagged PARN (enzyme, UniProt O95453 1-639)
chain: MEIIRSNFKSNLHKVYQAIEEADFFAIDGEFSGISDGPSVSALTNGFDTPEERYQKLKKHSMDFLLFQFGLCTFKYDYTDSKYITKSFNFYVFPKPFNRSSPDVKFVCQSSSIDFLASQGFDFNKVFRNGIPYLNQEEERQLREQYDEKRSQANGAGALSYVSPNTSKCPVTIPEDQKKFIDQVVEKIEDLLQSEENKNLDLEPCTGFQRKLIYQTLSWKYPKGIHVETLETEKKERYIVISKVDEEERKRREQQKHAKEQEELNDAVGFSRVIHAIANSGKLVIGHNMLLDVMHTVHQFYCPLPADLSEFKEMTTCVFPRLLDTKLMASTQPFKDIINNTSLAELEKRLKETPFNPPKVESAEGFPSYDTASEQLHEAGYDAYITGLCFISMANYLGSFLSPPKIHVSARSKLIEPFFNKLFLMRVMDIPYLNLEGPDLQPKRDHVLHVTFPKEWKTSDLYQLFSAFGNIQISWIDDTSAFVSLSQPEQVKIAVNTSKYAESYRIQTYAEYMGRKQEEKQIKRKWTEDSWKEADSKRLNPQCIPYTLQNHYYRNNSFTAPSTVGKRNLSPSQEEAGLEDGVSGEISDTELEQTDSCAEPLSEGRKKAKKLKRMKKELSPAGSISKNSPATLFEVPDTW
B2: V5-tagged PAN3, Q58A45 1-887 (protein)
chain: MNSGGGLPPPSAAASPSSSSLAAAVAVVAPPGVGGVPGGAAVGVKLKYCRYYAKDKTCFYGEECQFLHEDPAAGAAPGLGLHSNSVPLALAGAPVAGFPPGAVAGGGAGPPPGPKKPDLGDPGTGAAAGGGGSSGGLDGPRLAIPGMDGGALTDTSLTDSYFSTSFIGVNGFGSPVETKYPLMQRMTNSSSSPSLLNDSAKPYSAHDPLTSPASSLFNDFGALNISQRRKPRKYRLGMLEERLVPMGSKARKAKNPIGCLADRCKSGVPINMVWWNRVTENNLQTPNPTASEFIPKGGSTSRLSNVSQSNMSAFSQVFSHPSMGSPATAGLAPGMSLSAGSSPLHSPKITPHTSPAPRRRSHTPNPASYMVPSSASTSVNNPVSQTPSSGQVIQKETVGGTTYFYTDTTPAPLTGMVFPNYHIYPPTAPHVAYMQPKANAPSFFMADELRQELINRHLITMAQIDQADMPAVPTEVDSYHSLFPLEPLPPPNRIQKSSNFGYITSCYKAVNSKDDLPYCLRRIHGFRLVNTKCMVLVDMWKKIQHSNIVTLREVFTTKAFAEPSLVFAYDFHAGGETMMSRHFNDPNADAYFTKRKWGQHEGPLPRQHAGLLPESLIWAYIVQLSSALRTIHTAGLACRVMDPTKILITGKTRLRVNCVGVFDVLTFDNSQNNNPLALMAQYQQADLISLGKVVLALACNSLAGIQRENLQKAMELVTINYSSDLKNLILYLLTDQNRMRSVNDIMPMIGARFYTQLDAAQMRNDVIEEDLAKEVQNGRLFRLLAKLGTINERPEFQKDPTWSETGDRYLLKLFRDHLFHQVTEAGAPWIDLSHIISCLNKLDAGVPEKISLISRDEKSVLVVTYSDLKRCFENTFQELIAAANGQL
B3: V5-tagged PAN2, Q504Q3 1-1202 (enzyme)
chain: MNFEGLDPGLAEYAPAMHSALDPVLDAHLNPSLLQNVELDPEGVALEALPVQESVHIMEGVYSELHSVVAEVGVPVSVSHFDLHEEMLWVGSHGGHATSFFGPALERYSSFQVNGSDDIRQIQSLENGILFLTKNNLKYMARGGLIIFDYLLDENEDMHSLLLTDSSTLLVGGLQNHIIEIDLNTVQETQKYAVETPGVTIMRQTNRFFFCGHTSGKVSLRDLRTFKVEHEFDAFSGSLSDFDVHGNLLAACGFSSRLTGLACDRFLKVYDLRMMRAITPLQVHVDPAFLRFIPTYTSRLAIISQSGQCQFCEPTGLANPADIFHVNPVGPLLMTFDVSASKQALAFGDSEGCVHLWTDSPEPSFNPYSRETEFALPCLVDSLPPLDWSQDLLPLSLIPVPLTTDTLLSDWPAANSAPAPRRAPPVDAEILRTMKKVGFIGYAPNPRTRLRNQIPYRLKESDSEFDSFSQVTESPVGREEEPHLHMVSKKYRKVTIKYSKLGLEDFDFKHYNKTLFAGLEPHIPNAYCNCMIQVLYFLEPVRCLIQNHLCQKEFCLACELGFLFHMLDLSRGDPCQGNNFLRAFRTIPEASALGLILADSDEASGKGNLARLIQRWNRFILTQLHQDMQELEIPQAYRGAGGSSFCSSGDSVIGQLFSCEMENCSLCRCGSETVRASSTLLFTLSYPDGSKSDKTGKNYDFAQVLKRSICLDQNTQAWCDTCEKYQPTIQTRNIRHLPDILVINCEVNSSKEADFWRMQAEVAFKMAVKKHGGEISKNKEFALADWKELGSPEGVLVCPSIEELKNVWLPFSIRMKMTKNKGLDVCNWTDGDEMQWGPARAEEEHGVYVYDLMATVVHILDSRTGGSLVAHIKVGETYHQRKEGVTHQQWYLFNDFLIEPIDKHEAVQFDMNWKVPAILYYVKRNLNSRYNLNIKNPIEASVLLAEASLARKQRKTHTTFIPLMLNEMPQIGDLVGLDAEFVTLNEEEAELRSDGTKSTIKPSQMSVARITCVRGQGPNEGIPFIDDYISTQEQVVDYLTQYSGIKPGDLDAKISSKHLTTLKSTYLKLRFLIDIGVKFVGHGLQKDFRVINLMVPKDQVLDTVYLFHMPRKRMISLRFLAWYFLDLKIQGETHDSIEDARTALQLYRKYLELSKNGTEPESFHKVLKGLYEKGRKMDWKVPEPEGQTSPKNAAVFSSVLAL
B4: V5-tagged DCP1A, Q9NPI6 1-582 (protein)
chain: MEALSRAGQEMSLAALKQHDPYITSIADLTGQVALYTFCPKANQWEKTDIEGTLFVYRRSASPYHGFTIVNRLNMHNLVEPVNKDLEFQLHEPFLLYRNASLSIYSIWFYDKNDCHRIAKLMADVVEEETRRSQQAARDKQSPSQANGCSDHRPIDILEMLSRAKDEYERNQMGDSNISSPGLQPSTQLSNLGSTETLEEMPSGSQDKSAPSGHKHLTVEELFGTSLPKEQPAVVGLDSEEMERLPGDASQKEPNSFLPFPFEQLGGAPQSETLGVPSAAHHSVQPEITTPVLITPASITQSNEKHAPTYTIPLSPVLSPTLPAEAPTAQVPPSLPRNSTMMQAVKTTPRQRSPLLNQPVPELSHASLIANQSPFRAPLNVTNTAGTSLPSVDLLQKLRLTPQHDQIQTQPLGKGAMVASFSPAAGQLATPESFIEPPSKTAAARVAASASLSNMVLAPLQSMQQNQDPEVFVQPKVLSSAIPVAGAPLVTATTTAVSSVLLAPSVFQQTVTRSSDLERKASSPSPLTIGTPESQRKPSIILSKSQLQDTLIHLIKNDSSFLSTLHEVYLQVLTKNKDNHNL
B5: His-tagged YTHDF2 aa 1-100 (domain or fragment, UniProt Q9Y5A9 1-100)
chain: MSASSLLEQRPKGQGNKVQNGSVHQKDGLNDDDFEPYLSPQARPNNAYTAMSDSYLPSYYSPSIGFSYSLGEAAWSTGGDTAMPYLTSYGQLSNGEPHFL
B6: His-tagged YTHDF2-C (YTHDF2-401-579) (domain or fragment, UniProt Q9Y5A9 401-579)
chain: KDFDWNLKHGRVFIIKSYSEDDIHRSIKYNIWCSTEHGNKRLDAAYRSMNGKGPVYLLFSVNGSGHFCGVAEMKSAVDYNTCAGVWSQDKWKGRFDVRWIFVKDVPNSQLRHIRLENNENKPVTNSRDTQEVPLEKAKQVLKIIASYKHTTSIFDDFSHYEKRQEEEESVKKERQGRGK
B7: His-tagged YTHDF2 aa 301-400 (domain or fragment, UniProt Q9Y5A9 301-400)
chain: QGSPQPVGQQANNSPPVAQASVGQQTQPLPPPPPQPAQLSVQQQAAQPTRWVAPRNRGSGFGHNGVDGNGVGQSQAGSGSTPSEPHPVLEKLRSINNYNP
B8: His-tagged YTHDF2 aa 201-300 (domain or fragment, UniProt Q9Y5A9 201-300)
chain: SNVPKVVGSAVGSGSITSNIVASNSLPPATIAPPKPASWADIASKPAKQQPKLKTKNGIAGSSLPPPPIKHNMDIGTWDNKGPVAKAPSQALVQNIGQPT

These are yes or no findings as the source states them, for the method shown. For part of these data: In cells and extracts the contact can be indirect. Some entries that bind do so weakly or less than the wild type. Where a sequence is shown, tags or fusion partners need not be part of it.

One assay concerns the target T1, FLAG-tagged YTHDF2 stably expressed in HeLa-tTA cells (human). The assay is described as follows: co-IP; HeLa-tTA cells stably expressing FLAG-tagged YTHDF2; FLAG-M2 antibody or mouse IgG on Dynabeads Protein G, 3 h at 4 °C; blot for endogenous CNOT1.
Conditions: not given
As for “endogenous CNOT1 (from UniProt A5YKK6 1-2376)”, the binding result is “binds”.

The target in the next assay is T2, λN-FLAG-YTHDF2 (human). Put plainly: co-IP; HEK 293 cells co-transfected; lysate (50 mM Tris-HCl pH 7.4, 150 mM NaCl, 1 mM EDTA, 1 mM DTT, 0.5% NP-40) with RNase A; anti-FLAG affinity gel, 3 h at 4 °C; immunoblot.
Conditions: not given
“HA-tagged CNOT1 (from UniProt A5YKK6 1-2376)”: the binding entry was “binds”. As to “V5-tagged DCP2 (from UniProt Q8IU60 1-420) (enzyme)”, the binding result was “no binding”. As for “CAF1-141/147 (M141K and L147K double mutant) (from UniProt Q9UIV1 1-285) (enzyme)”, the binding entry is given as “no binding”. As for B1, the binding entry is “no binding”.

The target in another assay is T3, λN-FLAG-YTHDF2 (human), Q9Y5A9. Described as above. The note with it: remark: other sources report otherwise.
B2: the binding result is recorded as “no binding”. As for B3, the binding result is reported as “no binding”. On to B4, for which the binding result is “no binding”.

Another assay has as its target CNOT1 SH domain-GST fusion protein (aa 1842-2376) (human) (UniProt A5YKK6). Put plainly: pull-down; GST pull-down: 40 pmol YTHDF2 fragment with 40 pmol GST or GST-CNOT1 (aa 1842-2376) on glutathione Sepharose-4B; 20 mM HEPES pH 7.4, 200 mM NaCl, 0.1% Tween-20; 2 h at 4 °C; SDS-PAGE and Coomassie Blue staining; both purified.
Conditions: not given
As for B5, the binding result is listed as “no binding (tested: 40 pmol of each protein)”. As to B6, the binding result is reported as “no binding (tested: 40 pmol of each protein)”. In the case of B7, the binding result is “no binding (tested: 40 pmol of each protein)”.

Consider B8, for which the binding entry is on record as “no binding (tested: 40 pmol of each protein)”.
